# In patent US20230287125A1 (LEPU BIOPHARMA, published 2023):
# Tests used:
# [1] = target: T1, human PD-L1-his tag protein (human, UniProt Q9NZQ7 part only); assay: SPR (Biacore T200), molecule captured on Protein A chip, PD-L1-his injected
# T1 construct: also called human PD-L1-His protein; recombinant PD-L1 protein; not shown: his tag
# Method: A serial dilution of human PD-L1-his tag protein was injected over captured antibody for 2 mins at a flow rate of 30 μl/min. The antigen was allowed to dissociate for 1500 s. All the experiments were carried out on a Biacore T200. Data analysis was carried out using Biacore T200 evaluation software.
# human TGF-β1 protein [2] = target: T2, human TGF-β1 protein (human, UniProt P01137 part only); assay: ELISA, molecule titrated on coated human TGF-β1, OD450 nm; left panel
# T2 construct: also called human TGF-β1 protein (Acro, TG1-H4212); recombinant human TGF-β1
# From the text: After washing, the plates were developed with TMB substrate and analyzed by spectrophotometer at OD 450 nm.
# human TGF-β protein = human TGF-β protein (human, UniProt P01137 part only, The mature TGF-β1 is a disulfide-linked homodimer; one protomer is given.); assay: cell-based or functional assay
# human TGF-β1 protein [3] = target: T2, human TGF-β1 protein; assay: ELISA, molecule titrated on coated human TGF-β1, anti-human IgG Fc-HRP, OD 450nm
# T2 sequence (P01137 279-390 limits assumed): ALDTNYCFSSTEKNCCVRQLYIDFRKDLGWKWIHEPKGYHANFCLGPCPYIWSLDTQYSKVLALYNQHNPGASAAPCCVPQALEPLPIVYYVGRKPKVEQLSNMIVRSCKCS
# T1 sequence (Q9NZQ7 19-238 limits assumed): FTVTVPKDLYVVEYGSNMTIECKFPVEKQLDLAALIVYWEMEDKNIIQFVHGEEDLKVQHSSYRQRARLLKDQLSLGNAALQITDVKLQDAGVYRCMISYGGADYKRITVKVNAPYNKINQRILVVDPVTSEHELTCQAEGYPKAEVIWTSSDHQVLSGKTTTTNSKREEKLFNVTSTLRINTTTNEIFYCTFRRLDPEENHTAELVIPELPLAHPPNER
# Sequence of human TGF-β protein (P01137 279-390 limits assumed): as the sequence (P01137 279-390 limits assumed) above
Binder,Kd [1],koff [1],kon [1],EC50 (human TGF-β1 protein [2]),"IC50, TGF-β SBE luciferase reporter assay in 293 cells (human TGF-β protein)",EC50 (human TGF-β1 protein [3])
"LP008-06a (other, bifunctional anti-PD-L1 antibody / TGF-β RII extracellular domain fusion protein) heavy: EVQLVESGGGLVKPGGSLRLSCAASGFTFSNYWMTWIRQAPGKGLEWVASITNTGSSTFYPDSVKGRFTISRDNAKNSLYLQMNSLRAEDTAVYYCTRDTTIAPFDYWGQGTMVTVSSASTKGPSVFPLAPSSKSTSGGTAALGCLVKDYFPEPVTVSWNSGALTSGVHTFPAVLQSSGLYSLSSVVTVPSSSLGTQTYICNVNHKPSNTKVDKRV[not shown - human IgG1 Fc]GGGGSGGGGSGGGGSGGGGSGIPPHVQKSVNNDMIVTDNNGAVKFPQLCKFCDVRFSTCDNQKSCMSNCSITSICEKPQEVCVAVWRKNDENITLETVCHDPKLPYHDFILEDAASPKCIMKEKKKPGETFFMCSCSSDECNDNIIFSEEYNTSNPD light: DIQMTQSPSSLSASVGDRVTITCKASQNLNEYLNWYQQKPGKAPKRLIYKTNTLQAGIPSRFSGSGSGTDYTLTISSLQPEDFATYYCSQYQSGNTFGQGTKLEIKRTVAAPSVFIFPPSDEQLKSGTASVVCLLNNFYPREAKVQWKVDNALQSGNSQESVTEQDSKDSTYSLSSTLTLSKADYEKHKVYACEVTHQGLSSPVTKSFNRGEC",0.0768 nM,5.28e-05 s⁻¹,686000 M⁻¹ s⁻¹,,,
"LP008-06 (other, bifunctional anti-PD-L1 antibody / TGF-β RII extracellular domain fusion protein) heavy: EVQLVESGGGLVKPGGSLRLSCAASGFTFSNYWMTWIRQAPGKGLEWVASITNTGSSTFYPDSVKGRFTISRDNAKNSLYLQMNSLRAEDTAVYYCTRDTTIAPFDYWGQGTMVTVSSASTKGPSVFPLAPSSKSTSGGTAALGCLVKDYFPEPVTVSWNSGALTSGVHTFPAVLQSSGLYSLSSVVTVPSSSLGTQTYICNVNHKPSNTKVDKRV[not shown - human IgG1 Fc]GGGGSGGGGSGGGGSGGGGSGIPPHVQKSVNNDMIVTDNNGAVKFPQLCKFCDVRFSTCDNQKSCMSNCSITSICEKPQEVCVAVWRKNDENITLETVCHDPKLPYHDFILEDAASPKCIMKEKKKPGETFFMCSCSSDECNDNIIFSEEYNTSNPD light: DIQMTQSPSSLSASVGDRVTITCKASQNLNEYLNWYQQKPGKAPKRLIYKTNTLQAGIPSRFSGSGSGTDYTLTISSLQPEDFATYYCSQYNSGNTFGQGTKLEIKRTVAAPSVFIFPPSDEQLKSGTASVVCLLNNFYPREAKVQWKVDNALQSGNSQESVTEQDSKDSTYSLSSTLTLSKADYEKHKVYACEVTHQGLSSPVTKSFNRGEC",0.0756 nM,5.92e-05 s⁻¹,783000 M⁻¹ s⁻¹,,,
"LP008-06a-DA (other, bifunctional anti-PD-L1 antibody / TGF-β RII extracellular domain fusion protein) heavy: EVQLVESGGGLVKPGGSLRLSCAASGFTFSNYWMTWIRQAPGKGLEWVASITNTGSSTFYPDAVKGRFTISRDNAKNSLYLQMNSLRAEDTAVYYCTRDTTIAPFDYWGQGTMVTVSSASTKGPSVFPLAPSSKSTSGGTAALGCLVKDYFPEPVTVSWNSGALTSGVHTFPAVLQSSGLYSLSSVVTVPSSSLGTQTYICNVNHKPSNTKVDKRV[not shown - human IgG1 Fc]GGGGSGGGGSGGGGSGGGGSGIPPHVQKSVNNDMIVTDNNGAVKFPQLCKFCDVRFSTCDNQKSCMSNCSITSICEKPQEVCVAVWRKNDENITLETVCHDPKLPYHDFILEDAASPKCIMKEKKKPGETFFMCSCSSDECNDNIIFSEEYNTSNPD light: DIQMTQSPSSLSASVGDRVTITCKASQNLNEYLNWYQQKPGKAPKRLIYKTNTLQAGIPSRFSGSGSGTDYTLTISSLQPEDFATYYCSQYQSGNTFGQGTKLEIKRTVAAPSVFIFPPSDEQLKSGTASVVCLLNNFYPREAKVQWKVDNALQSGNSQESVTEQDSKDSTYSLSSTLTLSKADYEKHKVYACEVTHQGLSSPVTKSFNRGEC",0.0725 nM,4.8e-05 s⁻¹,661000 M⁻¹ s⁻¹,,,
"LP008-02-2 (other, modified LP008-02; also called Molecule 2) heavy: EVQLVQSGAEVKKPGASVKVSCKASGYTFTDFWVSWVRQAPGQGLEWMGEIYPNSGVSRYNEKFKGRVTMTVDKSISTAYMELSRLRSDDTAVYYCTKYFGYTYWFGYWGQGTLVTVSSASTKGPSVFPLAPSSKSTSGGTAALGCLVKDYFPEPVTVSWNSGALTSGVHTFPAVLQSSGLYSLSSVVTVPSSSLGTQTYICNVNHKPSNTKVDKRV[not shown - human IgG1 Fc]GGGGSTAGHTQTSTGGGAITTGTSGAGHGPQLCKFCDVRFSTCDNQKSCMSNCSITSICEKPQEVCVAVWRKNDENITLETVCHDPKLPYHDFILEDAASPKCIMKEKKKPGETFFMCSCSSDECNDNIIFSEEYNTSNPD light: DIQMTQSPSSLSASVGDRVTITCRASKSVSTYMHWYQQKPGKQPKLLIYSASHLESGVPSRFSGSGSGTDFTLTISSLQPEDFATYYCQQSNELPVTFGGGTKVEIKRTVAAPSVFIFPPSDEQLKSGTASVVCLLNNFYPREAKVQWKVDNALQSGNSQESVTEQDSKDSTYSLSSTLTLSKADYEKHKVYACEVTHQGLSSPVTKSFNRGEC",,,,0.767 nM,0.143 nM,0.278 nM
"LP008-02-4 (other, modified LP008-02; also called Molecule 4) heavy: EVQLVQSGAEVKKPGASVKVSCKASGYTFTDFWVSWVRQAPGQGLEWMGEIYPNSGVSRYNEKFKGRVTMTVDKSISTAYMELSRLRSDDTAVYYCTKYFGYTYWFGYWGQGTLVTVSSASTKGPSVFPLAPSSKSTSGGTAALGCLVKDYFPEPVTVSWNSGALTSGVHTFPAVLQSSGLYSLSSVVTVPSSSLGTQTYICNVNHKPSNTKVDKRV[not shown - human IgG1 Fc]GGGGSGGGGSGGGGSGGGGSGGGGSTAGHTQTSTGGGAITTGTSGAGHGPQLCKFCDVRFSTCDNQKSCMSNCSITSICEKPQEVCVAVWRKNDENITLETVCHDPKLPYHDFILEDAASPKCIMKEKKKPGETFFMCSCSSDECNDNIIFS light: DIQMTQSPSSLSASVGDRVTITCRASKSVSTYMHWYQQKPGKQPKLLIYSASHLESGVPSRFSGSGSGTDFTLTISSLQPEDFATYYCQQSNELPVTFGGGTKVEIKRTVAAPSVFIFPPSDEQLKSGTASVVCLLNNFYPREAKVQWKVDNALQSGNSQESVTEQDSKDSTYSLSSTLTLSKADYEKHKVYACEVTHQGLSSPVTKSFNRGEC",,,,0.874 nM,0.188 nM,
"LP008-02-5 (other, modified LP008-02; also called Molecule 5) heavy: EVQLVQSGAEVKKPGASVKVSCKASGYTFTDFWVSWVRQAPGQGLEWMGEIYPNSGVSRYNEKFKGRVTMTVDKSISTAYMELSRLRSDDTAVYYCTKYFGYTYWFGYWGQGTLVTVSSASTKGPSVFPLAPSSKSTSGGTAALGCLVKDYFPEPVTVSWNSGALTSGVHTFPAVLQSSGLYSLSSVVTVPSSSLGTQTYICNVNHKPSNTKVDKRV[not shown - human IgG1 Fc]SGGGGSGGGGSGGGGSGGGGSGGGGSHYPQLCKFCDVRFSTCDNQKSCMSNCSITSICEKPQEVCVAVWRKNDENITLETVCHDPKLPYHDFILEDAASPKCIMKEKKKPGETFFMCSCSSDECNDNIIFS light: DIQMTQSPSSLSASVGDRVTITCRASKSVSTYMHWYQQKPGKQPKLLIYSASHLESGVPSRFSGSGSGTDFTLTISSLQPEDFATYYCQQSNELPVTFGGGTKVEIKRTVAAPSVFIFPPSDEQLKSGTASVVCLLNNFYPREAKVQWKVDNALQSGNSQESVTEQDSKDSTYSLSSTLTLSKADYEKHKVYACEVTHQGLSSPVTKSFNRGEC",,,,1.33 nM,,
